Data from US9133439B2, “Differentiation of human embryonic stem cells” (Janssen Biotech, Inc., priority 2009, dated 2015).
Read-outs that look alike come from different tables or passages of the source.

Experiments:
[1] = tested on: NGN3 expression in differentiated H1 human embryonic stem cells; settings: for NGN3 Intensity RATIO: ratio of NGN3 staining for well treated with individual compound relative to average staining in wells with DMSO alone; for NGN3 RANK: 2.5 μM compound in steps 3 and 4, with Trichostatin A, ordered ranking of top 16 hits
[2] = tested on: NKX6.1 expression in differentiated H1 human embryonic stem cells; settings: for NKX6.1 Intensity RATIO: ratio of NKX6.1 staining for well treated with individual compound relative to average staining in wells with DMSO alone; for NKX6.1 RANK: 2.5 μM compound in steps 3 and 4, with Trichostatin A, ordered ranking of top 16 hits
[3] = tested on: NGN3 expression in differentiated H1 human embryonic stem cells; test: Example 1: kinase inhibitor library screen, NGN3 expression by high content analysis after differentiation; assay type: cell-based; settings: for NGN3 intensity RANK, Dose Stages 3&4 / NGN3 intensity RANK, Dose Stage 3 / NGN3 intensity RANK, Dose Stage 4: rank order among both kinase inhibitor libraries; for fold induction at 2.5 µM: Homo sapiens, Embryonic stem cell
[4] = tested on: NGN3 expression in differentiated H1 human embryonic stem cells; test: Example 3: confirmation screen, NGN3 expression by high content analysis; assay type: cell-based; settings: confirmation screen, Example 3
[5] = tested on: NKX6.1 expression in differentiated H1 human embryonic stem cells; test: Example 3: confirmation screen, NKX6.1 expression by high content analysis; assay type: cell-based; settings: confirmation screen, Example 3
[6] = inhibitor dosed at stage 3 only, NGN3 total intensity as ratio to control, EMDII and BioMol kinase inhibitor libraries
[7] = inhibitor dosed at stage 4 only, NGN3 total intensity as ratio to control, EMDII and BioMol kinase inhibitor libraries
[8] = inhibitor dosed at stages 3 and 4, NGN3 total intensity as ratio to control, EMDII and BioMol kinase inhibitor libraries
[9] = 2.5 μM compound during combined stages 3 and 4, NGN3 staining intensity relative to DMSO vehicle wells
[10] = 2.5 μM compound during combined stages 3 and 4
[11] = 2.5 μM compound during stage 3 alone, NGN3 staining intensity relative to DMSO vehicle wells
[12] = 2.5 μM compound during stage 3 alone
[13] = 2.5 μM compound during stage 4 alone, NGN3 staining intensity relative to DMSO vehicle wells
[14] = 2.5 μM compound during stage 4 alone

| Structure (SMILES) | NGN3 Intensity RATIO [1] | NKX6.1 Intensity RATIO [2] | NGN3 Intensity RATIO, Dose Stage 3 [3, 6] | NGN3 Intensity RATIO, Dose Stage 4 [3, 7] | NGN3 Intensity RATIO, Dose Stages 3 & 4 [3, 8] | further results |
| --- | --- | --- | --- | --- | --- | --- |
| CCCCCCCCCCCCCCCC(=O)OC(CC(=O)O)C[N+](C)(C)C.[Cl-] (racemic) [Palmitoyl-DL-carnitine Cl] | 0.99 | 1.19 | 1.06 | 0.97 | 0.82 | – |
| Nc1ncnc2c1c(I)cn2[C@@H]1O[C@H](CO)[C@@H](O)[C@H]1O [5-Iodotubercidin] | 0.27 | 0.13 | – | – | – | – |
| N#C/C(=C/c1ccc(O)c(O)c1)C(=O)NCc1ccccc1 [AG-490] | – | – | – | – | – | NKX6.1 RANK [2]: 16 |
| CC(C)(C)c1cc(/C=C(\C#N)C(N)=S)cc(C(C)(C)C)c1O [AG-879] | 0.72 | 0.39 | 0.99 | 0.77 | 0.53 | – |
| O=C(Nc1cccc(Nc2nccc(Nc3cccc(C(F)(F)F)c3)n2)c1)C1CC1 [Aurora Kinase Inhibitor III] | – | – | 1.10 | 1.00 | 1.03 | – |
| CC(C)c1cnc(NC(=O)Cc2ccccc2)s1 [BML-259] | – | – | – | – | – | effect on NGN3 expression relative to a control treatment (in words) [4]: no enhancing effects; effect on NKX6.1 expression relative to a control treatment (in words) [5]: no enhancing effects |
| NC(=O)c1ccc2nc(-c3ccc(Oc4ccc(Cl)cc4)cc3)[nH]c2c1 [Chk2 Inhibitor II] | – | – | 1.23 | 1.00 | 1.11 | – |
| COC(=O)/C=C/c1cc(O)ccc1O [Erbstatin analog] | 0.34 | 0.38 | 1.38 | 0.77 | 0.53 | – |
| Cn1sc(=O)n(Cc2ccccc2)c1=O [GSK-3b Inhibitor I] | – | – | 1.03 | 0.97 | 0.89 | – |
| COc1ccc(CNC(=O)Nc2ncc([N+](=O)[O-])s2)cc1 [GSK-3b Inhibitor VIII] | – | – | 1.17 | 0.85 | 0.60 | – |
| Cl.Cl.O=S(=O)(NCCNC/C=C/c1ccc(Br)cc1)c1cccc2cnccc12 [H-89] | – | – | – | – | – | NGN3 RANK [1]: 4; NKX6.1 RANK [2]: 3 |
| O=C(O)c1cc(NCc2cc(O)ccc2O)ccc1O [HDBA, 2-Hydroxy-5-(2,5-dihydroxybenzylamino)benzoic acid] | 0.64 | 0.88 | – | – | – | – |
| O=P(O)(O)C(O)c1ccc2ccccc2c1 (centres unmarked) [HNMPA, Hydroxy-2-naphthalenylmethylphosphonic acid] | – | – | – | – | – | NGN3 RANK [1]: 16; NKX6.1 RANK [2]: 15 |
| Cc1cc(O)c2c(=O)c3c(O)cc(O)c4c5c(O)cc(O)c6c(=O)c7c(O)cc(C)c8c1c2c(c34)c(c78)c65 [Hypericin] | 2.22 | 2.15 | – | – | – | NGN3 RANK [1]: 2 |
| N#CC(c1ccnc(NCCc2cccnc2)n1)c1nc2ccccc2s1 (centres unmarked) [JNK Inhibitor V] | – | – | 0.66 | 0.85 | 0.39 | – |
| N#CC(=C(N)Sc1ccc(N)cc1)c1ccccc1C(F)(F)F [MEK1/2 Inhibitor] | – | – | 1.03 | 0.77 | 1.60 | NGN3 Intensity RATIO, Dose Stages 3 & 4 [3, 9]: 1.60; NGN3 intensity RANK, Dose Stages 3&4 [3, 10]: 20; NGN3 Intensity RATIO, Dose Stage 3 [3, 11]: 1.03; NGN3 intensity RANK, Dose Stage 3 [3, 12]: 94; NGN3 Intensity RATIO, Dose Stage 4 [3, 13]: 0.77; NGN3 intensity RANK, Dose Stage 4 [3, 14]: 110 |
| N#C/C(=C(/N)Sc1ccccc1N)c1cccc(C(O)c2ccncc2)c1 (centres unmarked) [MEK Inhibitor I] | – | – | 0.74 | 0.85 | 0.91 | – |
| O=S(=O)(c1cccc2c(I)cccc12)N1CCCNCC1 [ML-7] | – | – | – | – | – | NKX6.1 RANK [2]: 12 |

| Structure (SMILES) | NGN3 Intensity RATIO [1] | NKX6.1 Intensity RATIO [2] | NGN3 Intensity RATIO, Dose Stage 3 [3, 6] | NGN3 Intensity RATIO, Dose Stage 4 [3, 7] | NGN3 Intensity RATIO, Dose Stages 3 & 4 [3, 8] | further results |
| --- | --- | --- | --- | --- | --- | --- |
| Cl.O=S(=O)(c1cccc2c(Cl)cccc12)N1CCCNCC1 [ML-9] | 0.59 | 1.60 | 0.61 | 0.97 | 0.40 | – |
| CO[C@@H]1[C@H](N(C)C(=O)c2ccccc2)C[C@H]2O[C@]1(C)n1c3ccccc3c3c4c(c5c6ccccc6n2c5c31)C(=O)NC4 [PKC-412] | 0.39 | 0.45 | – | – | – | – |
| Cc1ccc(-c2nn(C(C)(C)C)c3ncnc(N)c23)cc1 [PP1] | – | – | – | – | – | NGN3 RANK [1]: 12 |
| CC(C)(C)n1nc(-c2ccc(Cl)cc2)c2c(N)ncnc21 [PP2] | – | – | – | – | – | NGN3 RANK [1]: 5; NKX6.1 RANK [2]: 7; NGN3 intensity RANK, Dose Stages 3&4 [3, 10]: 1; NGN3 intensity RANK, Dose Stage 3 [3, 12]: 8; NGN3 intensity RANK, Dose Stage 4 [3, 14]: 2 |
| CC(C)[C@H](CO)Nc1nc(Nc2cccc(Cl)c2)c2ncn(C(C)C)c2n1 [Purvalanol A] | – | – | 0.91 | 0.53 | 0.32 | – |
| CS(=O)(=O)O.Cn1cc(C2=C(c3cn(CCCSC(=N)N)c4ccccc34)C(=O)NC2=O)c2ccccc21 [Ro 31-8220] | 0.30 | 0.48 | – | – | – | – |
| CC(=O)c1c(O)c(C)c(O)c(Cc2c(O)c3c(c(C(=O)/C=C/c4ccccc4)c2O)OC(C)(C)C=C3)c1O [Rottlerin] | 0.56 | 0.96 | 0.61 | 0.39 | 0.45 | – |
| Oc1ccc(-c2nc(-c3ccc(F)cc3)c(-c3ccncc3)[nH]2)cc1 [SB-202190] | – | – | – | – | – | NGN3 RANK [1]: 13 |
| C[S+]([O-])c1ccc(-c2nc(-c3ccc(F)cc3)c(-c3ccncc3)[nH]2)cc1 (centres unmarked) [SB-203580] | – | – | – | – | – | NGN3 RANK [1]: 6; NKX6.1 RANK [2]: 4 |
| Oc1c2ccccc2c2c3c(cccc13)N=N2 [SP 600125] | 1.09 | 1.67 | – | – | – | – |
| CN[C@@H]1C[C@H]2O[C@@](C)([C@@H]1OC)n1c3ccccc3c3c4c(c5c6ccccc6n2c5c31)C(=O)NC4 [Staurosporine] | 0.30 | 0.17 | – | – | – | – |
| N#Cc1cnc2cnc(NCc3cccnc3)cc2c1Nc1ccc(F)c(Cl)c1 [Tpl2 Kinase Inhibitor] | – | – | 0.99 | 0.97 | 0.96 | – |
| CC(C)(C)c1cc(C=C(C#N)C#N)cc(C(C)(C)C)c1O [Tyrphostin 9] | 0.29 | 0.29 | 0.58 | 0.40 | 0.34 | – |
| N#CC(C#N)=Cc1cc(O)c(O)c(O)c1 [Tyrphostin 25] | 1.24 | 4.68 | – | – | – | NKX6.1 RANK [2]: 5 |
| N#C/C(=C\c1ccc(O)c(O)c1)C(N)=O [Tyrphostin 46] | 0.82 | 2.54 | 1.22 | 1.40 | 0.84 | NKX6.1 RANK [2]: 13; NGN3 Intensity RATIO, Dose Stages 3 & 4 [3, 9]: 0.84; NGN3 intensity RANK, Dose Stages 3&4 [3, 10]: 85; NGN3 Intensity RATIO, Dose Stage 3 [3, 11]: 1.22; NGN3 intensity RANK, Dose Stage 3 [3, 12]: 66; NGN3 Intensity RATIO, Dose Stage 4 [3, 13]: 1.40; NGN3 intensity RANK, Dose Stage 4 [3, 14]: 21 |
| COc1cc2ncnc(Nc3cccc(Cl)c3)c2cc1OC [Tyrphostin AG 1478] | 1.89 | 2.41 | 1.62 | 1.57 | 1.74 | NGN3 RANK [1]: 7; NKX6.1 RANK [2]: 14; NGN3 Intensity RATIO, Dose Stages 3 & 4 [3, 9]: 1.74; NGN3 intensity RANK, Dose Stages 3&4 [3, 10]: 14; NGN3 Intensity RATIO, Dose Stage 3 [3, 11]: 1.62; NGN3 intensity RANK, Dose Stage 3 [3, 12]: 15; NGN3 Intensity RATIO, Dose Stage 4 [3, 13]: 1.57; NGN3 intensity RANK, Dose Stage 4 [3, 14]: 10 |
| COC[C@H]1OC(=O)c2coc3c2[C@@]1(C)C1=C(C3=O)[C@@H]2CCC(=O)[C@@]2(C)C[C@H]1OC(C)=O [Wortmannin] | – | – | – | – | – | NGN3 RANK [1]: 9; NKX6.1 RANK [2]: 9 |
| C[C@@H](N)[C@H]1CC[C@H](C(=O)Nc2ccncc2)CC1 [Y-27632] | 1.40 | 1.31 | – | – | – | NGN3 RANK [1]: 14; fold induction at 2.5 µM ([3]; 2.5 μM compound during combined stages 3 and 4, NGN3 staining intensity relative to DMSO vehicle wells, read-out: NGN3 intensity RATIO, Dose Stages 3&4): 1.78; fold induction at 2.5 µM ([3]; 2.5 μM compound during stage 3 alone, NGN3 staining intensity relative to DMSO vehicle wells, read-out: NGN3 intensity RATIO, Dose Stage 3): 0.84; fold induction at 2.5 µM ([3]; 2.5 μM compound during stage 4 alone, NGN3 staining intensity relative to DMSO vehicle wells, read-out: NGN3 intensity RATIO, Dose Stage 4): 2.67 |
